According to PubChem BioAssay AID938 (National Center for Advancing Translational Sciences (NCATS), 2007):
Out of some 73,000 compounds screened, about 1,800 (2.5%) were called active. The inconclusive results got no clear call from the source; some entries with a clear call stand among them for comparison. Calls follow the shape of the dose curve; as a rule, active = well fitted activation curve with a large enough effect; inconclusive = small, poorly fitted or top-dose-only effect; inactive = no such curve, though single readings can be large or run the other way. Potencies of inconclusive entries are left out as doubtful fits.

assay: qHTS Assay for Agonists of the Thyroid Stimulating Hormone Receptor: Activators of Intracellular cAMP Concentrations in Parental HEK 293; details: parental HEK293 CNG cAMP sensor, membrane potential fluorescence; activation: at 57.1 µM (top of the series) unless noted; also: nearly all actives have a fitted effect of over 55% in size; as to activation: % of control where 0% means no effect
Procedure, shortened: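 Parental HEK 293 cells stably expressing a modified CNG channel (no TSHR) report cAMP rise as membrane depolarization. Membrane potential dye with 100 uM RO 20-1724 was loaded for 60 min at room temperature, then compound added for 30 min; fluorescence read at 590 nm.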
Potency is read from the fitted curve at half-maximal effect; tags tell the direction and shape of the fitted curve.

Row | SMILES | Potency | activation
1 | CC(=O)c1sc2ccccc2c1OC(=O)c1ccco1 | inactive | 
2 | Cc1noc(C)c1-c1nccc(NCc2ccccc2)n1 | inconclusive [activator, single point] | 
3 | Nc1nncn1C(=O)c1cccs1 | inactive | 
4 | COc1ccc(NC(=O)N2CCCC3(CCN(C(=O)c4cc(C(F)(F)F)cc(C(F)(F)F)c4)CC3)C2)cc1 | inconclusive [activator, single point] | 
5 | Cc1ccc2oc(=O)n(CCOc3ccccc3Cl)c2c1 | inconclusive [activator, single point] | 
6 | COc1ccccc1OC[C@H](O)COC(N)=O | inactive | 
7 | CC(=O)c1cccc(NC(=O)C2CCN(S(=O)(=O)c3ccc(C)cc3)CC2)c1 | inactive | 
8 | O=C(O)[C@@H](c1ccccc1)N1Cc2ccccc2C1=O | inconclusive [activator, single point] | 
9 | Nc1nc(N)nc(CCCc2nc(N)nc(N)n2)n1 |  | inactive: -6.73% [at 11.4 µM]
10 | CC(C)CN1CCC2(CC1)CCN(C(=O)c1ccco1)CC2 | inactive | 
11 | COC(=O)c1c(C)[nH]c(C)c1C(=O)c1ccccc1Cc1ccccc1 | inconclusive [activator, single point] | 
12 | O=C(Nc1ccc(F)cc1)N(Cc1ccco1)Cc1cc2cc3c(cc2[nH]c1=O)OCO3 | active: 25.1 µM | 
13 | COc1ccc2nc(NC(=O)CN3CCN(C)CC3)sc2c1 | inactive | 
14 | O=C(Nc1ccc(N2CCOCC2)cc1)c1ccc2nc(-c3ccco3)c(-c3ccco3)nc2c1 | inactive | 
15 | Cc1cc(C)c(C)c(OCC(=O)NCc2nc(-c3ccccc3)no2)c1 | inconclusive [activator, single point] | 
16 | CSc1cccc(NC(=O)C2CCCN(S(=O)(=O)c3cnc[nH]3)C2)c1 (stereo not given) | inconclusive [activator, single point] | 
17 | COC(=O)CSc1nc(C2CC2)nc2ccccc12 | inconclusive [activator, single point] | 
18 | CCOC(=O)CSc1nc2cccnc2n1-c1ccc(F)cc1 | inconclusive [activator, single point] | 
19 | COc1ccccc1CN(Cc1cc2cc(C)cc(C)c2[nH]c1=O)Cc1nnnn1CC1CCCO1 (stereo not given) | inconclusive [activator, single point] | 
20 | C/C(CCN1CCCCc2nc(C)c(C)cc21)=N\O[C@@H](C)CN1CCCc2nc(C)c(C)cc21 |  | inactive: 17.6% [at 11.4 µM]
21 | CCOC(=O)C1=C(N)Oc2cc(C)[nH]c(=O)c2C1c1ccncc1 (stereo not given) | inconclusive [activator, single point] | 
22 | Cc1ccccc1Cn1nnc(-c2cccc(C(=O)O)c2)n1 | inconclusive [activator, single point] | 
23 | COc1ccccc1N1CCN(C(c2cc3ccc(C)cc3[nH]c2=O)c2nnnn2C2CCCC2)CC1 (stereo not given) | inconclusive [activator, partial curve] | 

Row | SMILES | Potency | activation
24 | O=C(O)CN(c1ccccc1F)S(=O)(=O)c1ccccc1 | inconclusive [activator, single point] | 
25 | CCCCSCc1nc2nc(Cl)c(Cl)nc2[nH]1 | inconclusive [activator, single point] | 
26 | Cc1ccc(CCNC(=O)C2CCCN(S(=O)(=O)c3cnc[nH]3)C2)cc1 (stereo not given) | inconclusive [activator, single point] | 
27 | CC(Sc1nnc(Cn2c(=O)sc3ccccc32)n1C)c1ccccc1 (stereo not given) | inconclusive [activator, partial curve] | 
28 | Cc1c(C(=O)NCc2ccccn2)oc2ccc(S(=O)(=O)N3CCOCC3)cc12 | inconclusive [activator, single point] | 
29 | Cc1cc(C)c2nc(C(F)(F)F)nc(N3CC(C)OC(C)C3)c2c1 (stereo not given) | active: 25.1 µM | 
30 | Cc1cccc2cc(CN(Cc3ccco3)C(=O)NC3CCCCC3)c(=O)[nH]c12 | inconclusive [activator, partial curve] | 
31 | COc1ccc(-c2onc3ccc(Cl)cc23)cc1OC | inconclusive [activator, partial curve] | 
32 | O=C(CSc1nnnn1-c1ccc2c(c1)OCCO2)OC1CCCCC1 | inconclusive [activator, partial curve] | 
33 | Cc1[nH]n2c(=O)cc(C(C)C)nc2c1-c1ccccc1 | inconclusive [activator, partial curve] | 
34 | CCOCCCNC(=O)c1cc2sc(Cl)cc2n1CC |  | inconclusive: 31.2% [activator]
35 | COc1cccc(N(C(=O)c2ccco2)C(C(=O)NC2CCCC2)c2cccnc2)c1 (stereo not given) | inconclusive [activator, single point] | 
36 | CCn1c(SCc2nc3ccccc3nc2C)nnc1-c1cccs1 | inconclusive [activator, single point] | 
37 | CCc1ccc2[nH]c(=O)c(CN(CCN(C)C)C(=O)Nc3ccccc3)cc2c1 | inconclusive [activator, partial curve] | 
38 | O=C(Nc1ccccc1N1CCN(C(=O)c2ccc(Cl)cc2)CC1)c1cc2ccccc2o1 | inconclusive [activator, partial curve] | 
39 | O=C(NCC1COc2ccccc2O1)c1ccc(Cl)cc1 (stereo not given) | inconclusive [activator, partial curve] | 
40 | COc1ccccc1CNc1cc(-c2cccc(C#N)c2)ncn1 | inactive | 
41 | Cc1ccc(-c2cc(C(F)F)n3ncc(C(=O)N4CCN5CCCC5C4)c3n2)cc1 (stereo not given) | active: 20 µM | 
42 | CCOC(=O)c1cc(-c2ccc3c(c2)OCCO3)nc2c1c(C)nn2CCC#N | active: 20 µM | 
43 | Cc1ccc2c(CSc3nc4ccccc4c(=O)n3CCCO)cc(=O)oc2c1 | inconclusive [activator, partial curve] | 
44 | COc1ccccc1CNc1ncnc2nc[nH]c12 | inconclusive [activator, single point] | 
45 | O=C1CCCc2c1cc(C(=O)NCc1ccco1)c(=O)n2-c1ccc(Cl)cc1 | inconclusive [activator, single point] | 
